Laboratory results: the supplement of paper PMC3334620
Whole data set: some 33,000 sequences, median “E-score (-0.5 to 0.5)” near -0.011, cut for the highest 2% near 0.28. This is one part of the list.

These sequences were tested against T1, Gcr1 (UniProt P07261) (assay: PBM E-score (8-mer binding enrichment) (E-score (-0.5 to 0.5)); higher = stronger / more preferred TF binding; most listed sequences are background and not binding sites). Settings: protein concentration: 100 nM; construct: GST-full length.
T1 sequence: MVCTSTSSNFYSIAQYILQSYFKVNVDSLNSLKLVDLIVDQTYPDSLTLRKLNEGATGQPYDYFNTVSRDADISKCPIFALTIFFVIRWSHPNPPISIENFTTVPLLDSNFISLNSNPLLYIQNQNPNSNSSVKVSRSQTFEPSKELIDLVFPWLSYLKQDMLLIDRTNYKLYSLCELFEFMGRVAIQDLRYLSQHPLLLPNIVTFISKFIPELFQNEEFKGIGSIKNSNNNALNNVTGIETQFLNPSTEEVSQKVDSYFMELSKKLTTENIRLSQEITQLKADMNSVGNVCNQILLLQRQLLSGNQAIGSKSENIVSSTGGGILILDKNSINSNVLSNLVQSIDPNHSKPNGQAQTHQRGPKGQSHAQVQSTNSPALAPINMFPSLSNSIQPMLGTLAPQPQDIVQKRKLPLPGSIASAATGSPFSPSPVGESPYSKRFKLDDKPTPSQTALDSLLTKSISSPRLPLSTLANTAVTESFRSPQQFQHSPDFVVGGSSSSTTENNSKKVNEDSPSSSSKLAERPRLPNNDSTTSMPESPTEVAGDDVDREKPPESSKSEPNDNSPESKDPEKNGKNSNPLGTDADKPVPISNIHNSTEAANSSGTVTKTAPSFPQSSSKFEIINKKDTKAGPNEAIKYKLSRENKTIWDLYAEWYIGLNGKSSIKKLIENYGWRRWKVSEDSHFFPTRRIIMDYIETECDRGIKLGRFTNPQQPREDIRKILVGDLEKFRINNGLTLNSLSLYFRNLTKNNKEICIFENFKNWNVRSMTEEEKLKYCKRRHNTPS
Protocol: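 Universal 'all 10-mer' protein binding microarrays (Agilent AMADID 015681) probed with GST-tagged S. cerevisiae TFs (full-length or DBD) made by in vitro transcription/translation (PURExpress), about 100-200 nM. Bound TF was detected with fluorescent anti-GST. Each ungapped 8-mer (which stands for itself and its reverse complement) is scored by the PBM enrichment score (E-score), a modified Wilcoxon-Mann-Whitney statistic from -0.5 to +0.5, computed with the Universal PBM Analysis Suite. Scale: above 0.35 generally sequence-specific binding.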

| Sequence | PBM E-score |
| --- | --- |
| AGACAAAC | -0.154 |
| CTGCACTC | -0.185 |
| AGACCCCG | -0.0624 |
| AGAGCCAT | -0.0751 |
| GCCAGTCC | -0.0339 |
| AAATTTGG | 0.301 |
| ATAAGCGC | -0.158 |
| ATGAGTCC | 0.039 |
| CAGTTCCG | 0.00837 |
| GATCGAGC | -0.116 |
| GACCCCTA | 0.0124 |
| ACTGTTTC | -0.0198 |
| ACCTATCT | 0.0198 |
| AGCCCGAC | -0.197 |
| CGCGGCAG | 0.0485 |
| AATGAGGG | -0.0211 |
| GACAAAGC | 0.0944 |
| CTTGCACA | 0.0305 |
| CCCACGTC | -0.321 |
| CACACAGA | -0.069 |
| ATCGACAG | 0.0501 |
| GTTGTCTA | -0.117 |
| ACGCGTAT | 0.244 |
| GGAGTAGA | 0.0945 |
| ACCTGGAT | 0.0846 |

| Sequence | PBM E-score |
| --- | --- |
| TATCGATA | -0.0551 |
| AGCCTAAG | -0.128 |
| CTTGTCGA | -0.0881 |
| CCAAGACG | 0.00442 |
| ACTGTCCA | -0.241 |
| CGTCTAAG | 0.171 |
| AACCTATA | 0.249 |
| AGCTGGTC | -0.205 |
| CTAGGGGA | 0.0176 |
| CAGTCACA | -0.101 |
| AATCTCAT | 0.0612 |
| ACAACGAG | -0.124 |
| ATGCGGTA | 0.123 |
| TATTACAA | 0.0504 |
| AAATGTCG | 0.0435 |
| AGCCAAAT | 0.107 |
| CCGTCTGC | -0.189 |
| CCATAACC | 0.038 |
| GACACTGC | -0.151 |
| CCAAACTA | -0.0224 |
| GAGCTGCC | 0.187 |
| CGGAAAGA | 0.125 |
| AACGAACT | -0.169 |
| TCGTCGCA | -0.0534 |
| CTGGTGTC | 0.0745 |

| Sequence | PBM E-score |
| --- | --- |
| AAGGAGCA | 0.0725 |
| CACAATCC | -0.0748 |
| CTCGACAG | -0.108 |
| ATTTTTAG | 0.0467 |
| ACTCACGA | -0.0437 |
| AGCAACGG | 0.0877 |
| AGCAATGA | -0.223 |
| GGAGTTCA | -0.218 |
| TGATCACA | 0.0281 |
| ACGATAGT | -0.0972 |
| CTGGGGGC | 0.0551 |
| ATGAGGCG | -0.136 |
| ATCGGTTG | 0.0167 |
| AGCCAGGC | -0.14 |
| CGGCAATA | -0.0929 |
| TAGAACTA | -0.242 |
| CGAATTCA | 0.0351 |
| CTGGATCA | -0.0687 |
| AAATGGCG | 0.226 |
| CCTACGTA | -0.0382 |
| GGGTTACA | -0.021 |
| ACGTATTA | 0.126 |
| CACTCGTA | -0.0543 |
| TCCGCTCA | 0.165 |
| ATTGAAAC | 0.143 |

| Sequence | PBM E-score |
| --- | --- |
| GGAATTGA | 0.0304 |
| ACTAATGA | -0.0271 |
| ACGTCCAT | -0.0703 |
| GAGGGTAC | -0.2 |
| AGGTGATC | -0.0403 |
| AGCCGGTG | 0.142 |
| CTCGCAGA | -0.01 |
| ATCCTACC | -0.00286 |
| ACTTAGAG | 0.16 |
| CGGACTAC | -0.0461 |
| CAGCAGGC | 0.0382 |
| CGCGAAGC | 0.12 |
| CGATCACG | -0.15 |
| CGGCCACG | -0.0335 |
| ACAGTCTC | -0.111 |
| AGCGCAGG | -0.206 |
| CAGGATTC | 0.249 |
| GCACCTTA | 0.106 |
| ATTACTGG | 0.362 |
| ACTATGTG | 0.00825 |
| ACCTGACA | 0.0154 |
| GGGTGTAC | -0.138 |
| AGTACATG | -0.117 |
| GTAGTCGA | -0.0515 |
| GATAAAGC | -0.135 |

| Sequence | PBM E-score |
| --- | --- |
| AAGCATGT | -0.156 |
| AAGGGAGC | 0.156 |
| ACCTGAAA | 0.244 |
| ACTTCCGG | 0.229 |
| CAGCGGTC | -0.152 |
| CCGGATCC | 0.279 |
| CCCAGTCA | -0.127 |
| CTAGTCGA | 0.0544 |
| ACCAGACA | -0.123 |
| GACCATGA | -0.254 |
| TGCAGACA | 0.0275 |
| AAGGCTGC | 0.302 |
| CTTTCAGA | -0.0432 |
| GTCCAAAA | 0.21 |
| AATCGTGC | 0.0604 |
| CAACGAGC | -0.238 |
| AAAAAGTC | -0.0676 |
| AACGACAT | 0.097 |
| CTGAACCA | -0.0507 |
| TGAATCCA | 0.169 |
| AGTGAGAC | -0.352 |
| TCATGGGA | 0.0378 |
| CTAGGCGC | 0.178 |
| GAAGTAAA | -0.0223 |
| AATGCCTA | 0.13 |

| Sequence | PBM E-score |
| --- | --- |
| CGACGGCG | -0.289 |
| CGCCAATA | 0.144 |
| ACTTACCT | -0.188 |
| CAGCTGAG | -0.0346 |
| ACAGCAGC | 0.288 |
| CACTCCAG | 0.0875 |
| AACTTGAT | 0.195 |
| GGACGTAC | -0.249 |
| AGTAGTAT | 0.143 |
| CTATACCA | -0.0503 |
| CGAGTCAG | -0.184 |
| CAAGTGAC | 0.0147 |
| CTGAGGTC | -0.0116 |
| CTGGGTTA | -0.189 |
| GAGGTTCC | 0.269 |
| CCTCTTGC | -0.0705 |
| GAACGCCA | 0.159 |
| ACCCGGTA | 0.0566 |
| TGCTTGAA | 0.201 |
| ACTGACTC | -0.199 |
| GATCCATA | 0.0394 |
| AAAGGCCA | -0.245 |
| AGCAACGC | 0.0651 |
| ACATTACA | 0.178 |
| ACCAGTAA | 0.266 |

| Sequence | PBM E-score |
| --- | --- |
| ATACGACA | 0.0695 |
| ATAAGAAT | 0.123 |
| AATTAACC | 0.0095 |
| AAAGCTAT | -0.188 |
| AATGCACC | 0.059 |
| CATAGAGC | -0.0186 |
| CTGGAAGC | 0.45 |
| CTCACCTC | -0.0783 |
| CCAGGGGC | -0.12 |
| CTCCCCCA | -0.139 |
| GCGAACAC | -0.0366 |
| TAACTCAA | 0.00679 |
| CCTTGCAG | -0.303 |
| ATCTGCTG | -0.168 |
| ATATGCGA | 0.0152 |
| GGCCTCAC | -0.109 |
| AAACTGTG | 0.0668 |
| GATGACAA | -0.0664 |
| AGGCGCTC | -0.0859 |
| CATTGTGA | -0.0738 |
| CCTCGGGC | 0.0253 |
| CGCGAGTA | -0.0789 |
